Results are given in words; binding and its absence hold for the method and conditions named. For part of these data: In cells and extracts the contact can be indirect. Some entries that bind do so weakly or less than the wild type. Sequences can lack the tags named with a protein.
T1: Clp1aa.1-371, GAL4 DNA binding domain fusion (S. pombe) (UniProt Q9P7H1)
T1 sequence: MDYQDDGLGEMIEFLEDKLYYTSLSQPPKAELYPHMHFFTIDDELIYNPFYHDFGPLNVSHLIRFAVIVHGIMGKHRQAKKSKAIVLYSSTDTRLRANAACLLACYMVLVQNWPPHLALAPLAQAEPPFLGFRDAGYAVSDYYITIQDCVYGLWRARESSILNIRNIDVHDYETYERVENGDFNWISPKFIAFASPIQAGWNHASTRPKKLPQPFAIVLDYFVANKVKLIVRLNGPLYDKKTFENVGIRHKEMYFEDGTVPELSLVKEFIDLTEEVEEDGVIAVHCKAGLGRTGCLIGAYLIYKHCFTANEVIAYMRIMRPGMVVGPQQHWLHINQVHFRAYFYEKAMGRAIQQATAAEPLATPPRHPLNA

By UniProt entry, the sequences of proteins in these tests, tags left out.
UniProt P53350: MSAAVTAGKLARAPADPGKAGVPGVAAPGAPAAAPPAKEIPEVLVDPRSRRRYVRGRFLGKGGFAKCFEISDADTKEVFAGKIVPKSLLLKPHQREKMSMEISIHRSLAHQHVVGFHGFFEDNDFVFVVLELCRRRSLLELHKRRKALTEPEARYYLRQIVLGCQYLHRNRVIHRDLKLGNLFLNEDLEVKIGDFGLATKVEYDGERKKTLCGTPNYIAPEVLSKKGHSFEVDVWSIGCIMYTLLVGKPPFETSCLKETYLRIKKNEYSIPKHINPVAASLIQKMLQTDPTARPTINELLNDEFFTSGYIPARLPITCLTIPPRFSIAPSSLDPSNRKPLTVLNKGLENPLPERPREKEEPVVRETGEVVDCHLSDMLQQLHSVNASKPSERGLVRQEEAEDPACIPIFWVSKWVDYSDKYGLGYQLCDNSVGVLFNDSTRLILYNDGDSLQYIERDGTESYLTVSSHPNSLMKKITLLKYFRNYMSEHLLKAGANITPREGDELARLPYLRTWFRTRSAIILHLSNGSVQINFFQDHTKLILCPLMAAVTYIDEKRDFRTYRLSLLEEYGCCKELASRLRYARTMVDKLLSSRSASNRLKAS

T2: Plo1p (wild-type), LexA DNA binding domain fusion (S. pombe) (UniProt P50528)
T2 sequence: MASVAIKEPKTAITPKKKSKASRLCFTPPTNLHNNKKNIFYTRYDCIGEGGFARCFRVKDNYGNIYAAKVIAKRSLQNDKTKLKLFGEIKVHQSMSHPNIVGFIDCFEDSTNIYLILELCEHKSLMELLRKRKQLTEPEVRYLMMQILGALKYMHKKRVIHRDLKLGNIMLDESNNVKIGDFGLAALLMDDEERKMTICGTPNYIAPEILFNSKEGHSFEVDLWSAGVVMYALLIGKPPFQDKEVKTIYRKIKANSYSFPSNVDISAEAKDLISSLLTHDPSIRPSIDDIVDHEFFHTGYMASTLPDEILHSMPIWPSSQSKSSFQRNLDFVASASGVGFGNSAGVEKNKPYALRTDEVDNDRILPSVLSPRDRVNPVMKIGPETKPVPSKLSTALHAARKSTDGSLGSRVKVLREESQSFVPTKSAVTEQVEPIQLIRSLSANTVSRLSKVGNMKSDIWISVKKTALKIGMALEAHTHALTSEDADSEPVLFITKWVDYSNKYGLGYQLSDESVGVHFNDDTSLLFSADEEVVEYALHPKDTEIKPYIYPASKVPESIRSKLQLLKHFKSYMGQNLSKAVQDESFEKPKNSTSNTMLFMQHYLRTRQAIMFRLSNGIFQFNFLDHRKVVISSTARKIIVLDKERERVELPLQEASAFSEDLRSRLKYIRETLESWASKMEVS

B1: Sst6p (ESCRT-I), GAL4 transcription activation domain fusion (protein, UniProt Q7Z992 1-487)
chain: MSDHAINEHPSRILNTIEKIRFWKNGLAEELELLFRKQCEDTFTLQAINIEVDTQDENKIEEVRIYLSTPAFDKTILTSACITVRSYYPSQPPIVQLLDEKGGKHKYTSLLLQLWKNERSVFNIYRLVQALIKQDFEREHTSPPELPTKLVNTIEKLKVKEENEAPPVIPAKPFSSSSEQHFRKVPALPSKLPPKPLKITANSSLGQETNSNSSSFQSTLFSLNTAPFSATSQQLVHDSVSLRRPSSNIPAQKPIPPKPEQNEIIITKDTPSLKDKYSKPALLPQKPKVSKGQIVQQVSVFSTGKKIESQSLLNLIDTDIETPLKGSSELLYSEDFKPNVDPVKIQQILHKQNKIIEEKWISQIRISKNLEVKQRLLDQERHALETLAKNIENNRFILGKRRRKAREALQKLDNLKDLSVQELFIIPSERELKYYELKRKDEKLDEGIRALNQALHHESIMPASWLKGIKLLARQQFLIRDEMLQYS
B2: Vps4p, GAL4 transcription activation domain fusion (enzyme, UniProt Q09803 1-432)
chain: MSNPDCLSKAISLVKTAIDNDNAEQYPDAYKYYQSALDYFMMALKYEKNEKSKEIIRSKVIEYLDRAEKLKVYLQEKNNQISSKSRVSNGNVEGSNSPTANEALDSDAKKLRSALTSAILVEKPNVRWDDIAGLENAKEALKETVLLPIKLPQLFSHGRKPWSGILLYGPPGTGKSYLAKAVATEAGSTFFSISSSDLVSKWMGESERLVRQLFEMAREQKPSIIFIDEIDSLCGSRSEGESESSRRIKTEFLVQMNGVGKDESGVLVLGATNIPWTLDSAIRRRFEKRIYIPLPNAHARARMFELNVGKIPSELTSQDFKELAKMTDGYSGSDISIVVRDAIMEPVRRIHTATHFKEVYDNKSNRTLVTPCSPGDPDAFESSWLEVNPEDIMEPKLTVRDFYSAVRKVKPTLNAGDIEKHTQFTKDFGAEG
B3: Vps25p (ESCRT-II), GAL4 transcription activation domain fusion (protein, UniProt O74967 1-175)
chain: MRVPSIYNFPPFFTRQLNDNTWHSQKAAWQMWILLWCRENRQTSITINPELLESSLLHNSTIHRTLPLSVFREIVEDMVKQNLAEWTEKRNPKDVFWVYWRSISEWGNMILKWLSDMGREGSICTFYELQEQYKEVDCLDEVLLHKVLELLMKKGNIELMKGSSGKYSGFKVLKA
B4: Vps36p (ESCRT-II), GAL4 transcription activation domain fusion (protein, UniProt O43038 1-467)
chain: MAFYLETTPSNLPVLDPSEEILLVQDQVGLYFGDEKSFRHNNGTLYLTKKHIFYVDSVDPKKNSLKIKISDIRDVQHTSRYFRSSPKIRLSLRHVEKSWACKICTFINVGDPINPCRNCGVANRFTIIKPKSDARFSQGLCTACTFQNYPDLNTCEICGNQLKNVDRNQLIQLSFRGSGSSKFYEAIKSETDEIEKQRYSNKYDTKVLRKAILEKSLRMGGIHDLEQSHEMQLAKNGRTLVHAFQDLDAFFSLAKDTMSLADQFAEKMDGLTGTQQSDKVQQLLNKSNQLGVLRGNHLDNVPVSANSRLYDIELCKSISEVLRTRLKADTDTVTMTQAWAIYNRSRKANLIPPTRFVKACELIDSMEVGITTSKMNSGLILFQLKTSNHSGKLLSAILEVMNPSTTALKCAMRLHWSIGVTLERLYQAEMDGYIVRDVYEESGSSLLYWKNEFDELSEELTKWFDES
B5: Sst4p (ESCRT-0), GAL4 transcription activation domain fusion (protein, UniProt O13821 1-610)
chain: MSRWWNSNSQFASDIEKATSETLPAGSEEISLYLEISDQIRSKSVDPKFAMRILKSRIDHSNPNVQIMALKLTDTCVKNGGSGFLLEIASREFMDNLVSILRSPAGIDEDVKMVILRYIQSWALAVPDTNSPLSYIIHVYQNLKDGDYEFPEPSQNITSKFLDTETPPDWTDSEVCLRCRTPFTFTNRKHHCRNCGGVFCNQCSSKTLSLPHLGINQPVRVCDSCYSLRTKPKGSKSRARNERKFHAKTRKTPSKPVTNNEDEDIKRAIELSLKEMPQSREPPSYERPSEANVVISQDQHLTEDEDEELKRAIAISLEEAQKSSQKDDNVTAPNNMNISYPSVPAHTVSTDIRSSPFSGRPSDNPSTLISTADADNITLYATLVQKLKKLPPGSIFTEYQLQELHENMGVMRTRMMRSLGETMSKYNGLIQALQKLQTCMRLNDALIEQRLSSTYAHHYIDSSMDSNRSIEPEPDVISTVRNSSTIPQASSSSVPKIVVDSSPVTENPPSHSDVMGQKDTISSYYSTDTDVSANVMGNRHDEVVFSDTASGEKNTKLNIDESTNYYNTDSIDKVGEPFDEISSGYDDLMNGNDKQGNDIPEVQEASLIEL
B6: Vps28p (ESCRT-I), GAL4 transcription activation domain fusion (protein, UniProt O13872 1-248)
chain: MTEYYDLNLLEKETSEENNFHTKNQQVREDLSILYSILVALEQLEKAFTKDAVSTSDFNSTCELLIQQWESCFSDERVTQAFGSFEDFCSKYRLQCPRAIKRIQEGISDERSQSNSTFSNAISTTAEPSIAMNDTTPQTVNPTKAPSNPSASIAKSIAGLVQNFITTLDAIRLNFIAKDQLHPLLSELIVSMDDLTESLKIQVSCRNKLVQWLIKINNMNITDQLNDVEKRELLYDLEQAYAECYSLL
B7: Vps2p (ESCRT-III), GAL4 transcription activation domain fusion (protein, UniProt O14177 1-210)
chain: MGLTSWLFGGGKSPQEQLRAHQRSLGRAERELDRERTKLDQRERALIQEIKGSAKAGNTGAARIQARDLMRLRNSRKKMMNAKTQLQAISLRLQTMRTSEQMMQSMRGATRLLTGMNKSMNIPAMARITQQFERENEIMEQRQEMIDENMDDALEEDDEEEADELVNKVLDEIGVDLSQGLPDAATQIGTVPELKTEDNLQARLDELAKR
B8: CHMP4B-YFP (protein, UniProt Q9H444 1-224)
chain: MSVFGKLFGAGGGKAGKGGPTPQEAIQRLRDTEEMLSKKQEFLEKKIEQELTAAKKHGTKNKRAALQALKRKKRYEKQLAQIDGTLSTIEFQREALENANTNTEVLKNMGYAAKAMKAAHDNMDIDKVDELMQDIADQQELAEEISTAISKPVGFGEEFDEDELMAELEELEQEELDKNLLEISGPETVPLPNVPSIALPSKPAKKKEEEDDDMKELENWAGSM
B9: CHMP6-GFP (protein, UniProt Q96FZ7 1-201)
chain: MGNLFGRKKQSRVTEQDKAILQLKQQRDKLRQYQKRIAQQLERERALARQLLRDGRKERAKLLLKKKRYQEQLLDRTENQISSLEAMVQSIEFTQIEMKVMEGLQFGNECLNKMHQVMSIEEVERILDETQEAVEYQRQIDELLAGSFTQEDEDAILEELSAITQEQIELPEVPSEPLPEKIPENVPVKARPRQAELVAAS
B10: CHMP3-myc (protein, UniProt Q9Y3E7 1-222)
chain: MGLFGKTQEKPPKELVNEWSLKIRKEMRVVDRQIRDIQREEEKVKRSVKDAAKKGQKDVCIVLAKEMIRSRKAVSKLYASKAHMNSVLMGMKNQLAVLRVAGSLQKSTEVMKAMQSLVKIPEIQATMRELSKEMMKAGIIEEMLEDTFESMDDQEEMEEEAEMEIDRILFEITAGALGKAPSKVTDALPEPEPPGAMAASEDEEEEEEALEAMQSRLATLRS
B11: CHMP2A-GFP (protein, UniProt O43633 1-222)
chain: MDLLFGRRKTPEELLRQNQRALNRAMRELDRERQKLETQEKKIIADIKKMAKQGQMDAVRIMAKDLVRTRRYVRKFVLMRANIQAVSLKIQTLKSNNSMAQAMKGVTKAMGTMNRQLKLPQIQKIMMEFERQAEIMDMKEEMMNDAIDDAMGDEEDEEESDAVVSQVLDELGLSLTDELSNLPSTGGSLSVAAGGKKAEAAASALADADADLEERLKNLRRD

Target: T1, Clp1aa.1-371, GAL4 DNA binding domain fusion (S. pombe)
Test: two-hybrid; bait Clp1p fused to GAL4 DNA binding domain, prey ESCRT proteins fused to GAL4 transcription activation domain; budding yeast with GAL4-galactosidase readout; X-gal overlay; interaction read from the lack of transcriptional readout of the auto-activating bait Clp1aa.1-371

Row | binding | Binder
1 | no binding | B1
2 | no binding | B2
3 | no binding | B3
4 | no binding | B4
5 | no binding | B5
6 | binds | B6
7 | no binding | B7

Target: Human polo-like kinase 1 (Plk1) (human) (UniProt P53350)
Test: co-IP; HEK293 cells transfected with tagged ESCRT proteins; 1 mg lysate with 12.8 ug anti-Plk1 antibody overnight at 4 C, Protein A sepharose; washes with 100 mM KCl and with 250 mM NaCl, 1% Triton X-100; immunoblot with anti-GFP or anti-myc

Row | binding | Binder
8 | binds | B8
9 | binds | B9
10 | binds | B10
11 | binds | B11

Target: T2, Plo1p (wild-type), LexA DNA binding domain fusion (S. pombe)
Test: two-hybrid; bait fused to LexA DNA binding domain (Plo1p or Ark1p), prey ESCRT proteins fused to GAL4 transcription activation domain; budding yeast with LEXA-galactosidase readout; three days on selective medium, X-gal overlay; qualitative

Row | binding | Binder
12 | no binding | B1
13 | no binding | B2
14 | binds | B3
15 | no binding | B4
16 | binds | B5
17 | binds | B6
18 | no binding | B7

Source: paper PMC4214795
